In PubChem BioAssay AID504832 (National Center for Advancing Translational Sciences (NCATS), 2011):
The campaign covered roughly 310,000 compounds. About 18,000 (5.8%) were called active. The inconclusive results got no clear call from the source; some entries with a clear call stand among them for comparison. Calls come from the whole dose curve; as a rule, active = well fitted inhibition curve with a large enough effect; inconclusive = small, poorly fitted or top-dose-only effect, or another doubt; inactive = no such curve, though single readings can be large or run the other way. No potency is given beside an inconclusive call; the fits are too rough. Positions of bridges follow the written chain, without caps; N, C: chain ends. Non-standard residues stand in square brackets, D forms with d. Residues, ends and D or L forms follow the SMILES beside them. ξ: configuration not given here. *: point of attachment. ξDab(CH2SO3H) = NC(CCNCS(=O)(=O)O)C(=O)O; Heptanoyl(6-Me) = CC(C)CCCCC(=O)*; Dab = NCC[CH](N)C(=O)O

Assay: Primary qHTS for delayed death inhibitors of the malarial parasite plastid, 48 hour incubation
Details: P. falciparum luciferase growth in erythrocytes; series mostly up to 28.7 µM; activity change, negative = inhibition: at the top concentration
Summary of the method: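 Cell-based growth assay: transgenic P. falciparum expressing firefly luciferase, cultured in red cells within RPMI 1640 containing 0.5% w/v Albumax, 24 mM bicarbonate and gentamycin. A drop in luciferase activity indicates inhibition.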
% is set by controls: 0 for no effect and ±100 for the full control effect; potency is the fitted concentration of half-maximal effect; tags give direction and shape of the fitted curve.

Row | Compound | Potency | activity change, negative = inhibition
1 | CSc1ccc(CCNC(=O)c2cc(-c3ccccc3)c(N3CCOCC3)s2)cc1 | inconclusive [inhibitor, partial curve] | –
2 | CCC(C)NC(=O)Cc1c(C)c2cc3c(cc2oc1=O)OC(C)(C)CC3 (configuration not stated) | – | inactive: 62.9%
3 | CNC(=O)c1cc(C(=O)c2ccc(F)cc2C(F)(F)F)c[nH]1 | – | inactive: -7.94% [at 0.00184 µM]
4 | COC(=O)C1=C(c2ccc(OC)c(OC)c2)C[C@@H]2CC[C@H]1N2C(=O)NCc1cccc2ccccc12 | active: 0.522 µM | –
5 | CCn1c(SCc2ccc(C#N)cc2)nnc1-c1cccc(Cl)c1 | inconclusive [inhibitor, partial curve, poor fit] | –
6 | COc1cccc(C2C3=C(N=c4s/c(=C\c5ccc(O)cc5)c(=O)n42)c2ccccc2CC3)c1OC (configuration not stated) | inconclusive [inhibitor, full curve] | –
7 | CCOc1ccccc1CNC(=O)c1ccc(NC(=O)C2=C(C)OCCS2)cc1 | inconclusive [inhibitor, partial curve, poor fit] | –
8 | Cc1ccc(-n2c(-c3ccncc3)n[nH]c2=S)c(C)c1 | inconclusive [inhibitor, single point] | –
9 | CCOC(=O)N1CCN(C(=O)C2CCCN(S(=O)(=O)c3cc(C)ccc3OC)C2)CC1 (configuration not stated) | inconclusive [inhibitor, partial curve] | –
10 | Cc1cccc(NC(=O)Nc2ccc(Oc3c(F)c(F)c(F)c(F)c3F)cc2)c1 | inconclusive [inhibitor, full curve] | –
11 | COc1ccc(NC(=O)Nc2cccc(Cl)c2Cl)c(OC)n1 | inconclusive [inhibitor, full curve] | –
12 | O=C(Cn1nnc(N2CCCC2)n1)N/N=C/c1ccc(Cl)cc1 | inconclusive [inhibitor, partial curve, poor fit] | –
13 | COc1ccccc1-c1ccc(=O)n(CC(=O)NC(C)(C)C)n1 | – | inactive: 45.9%
14 | Cc1nn2c3c(cnc2c1-c1ccccc1)C(=O)CC(c1ccccc1)C3 (configuration not stated) | inconclusive [inhibitor, partial curve] | –
15 | CCC(C)C1NC(=O)C(CCNCS(=O)(=O)O)NC(=O)C(NC(=O)C(CCNCS(=O)(=O)O)NC(=O)C(NC(=O)C(CCNCS(=O)(=O)O)NC(=O)CCCCC(C)C)C(C)O)CCNC(=O)C(C(C)O)NC(=O)C(CCNCS(=O)(=O)O)NC(=O)C(CCNCS(=O)(=O)O)NC(=O)C(C(C)CC)NC1=O (configuration not stated) ({Heptanoyl(6-Me)}-[ξDab(CH2SO3H)]T[ξDab(CH2SO3H)][Dab][ξDab(CH2SO3H)]II[ξDab(CH2SO3H)][ξDab(CH2SO3H)]T; lactam 4-C; configuration not given here) | inconclusive [inhibitor, single point] | –
16 | Cn1cc(/C=C2/SC(=O)N(c3ccccc3)C2=O)c2ccccc21 | – | inactive: 53.5%
17 | Cc1cc2c(cc1C)NC(CC(=O)NCc1ccccc1)C(=O)N2 (configuration not stated) | inconclusive [inhibitor, single point] | –
18 | Cc1ccc(S(=O)(=O)/C(C#N)=C/c2c(N3CCC(C(N)=O)CC3)nc3c(C)cccn3c2=O)cc1 | inconclusive [inhibitor, single point] | –
19 | O=C(/C=C/c1ccccc1)N1CCN(CC(O)COc2ccccc2)CC1 (configuration not stated) | inconclusive [inhibitor, partial curve, poor fit] | –
20 | CS(=O)(=O)N(CC(=O)Nc1ccccc1Sc1ccccc1)c1cccc(Br)c1 | active: 13.1 µM | –
21 | CCN1CCN(C(=O)c2ccccc2N(Cc2ccccc2)S(=O)(=O)c2ccc(OC)cc2)CC1 | inconclusive [inhibitor, single point] | –

Row | Compound | Potency | activity change, negative = inhibition
22 | Cc1nn(-c2ccc(Cl)cc2)c2sc(C(=O)N3CCN(C(=O)c4ccco4)CC3)cc12 | – | inactive: 7.36%
23 | FC(F)(F)c1cccc(NC(=S)Nc2ccc(Cl)cc2Cl)c1 | inconclusive [inhibitor, single point] | –
24 | O=C(Nc1ccc([N+](=O)[O-])cc1)c1cc(Cl)sc1Cl | – | inactive: 17.4%
25 | O=C1C=C(c2cc(Cl)cc(Cl)c2)C[C@@H](c2ccc3c(c2)OCO3)C1 | inconclusive [inhibitor, partial curve, poor fit] | –
26 | Cc1oc(-c2ccccc2F)nc1CS(=O)(=O)CC(=O)N1CCOCC1 | – | inactive: 4.56%
27 | CCOc1ccc(CCNC(=O)COC(=O)c2ccc(OC(C)C)cc2)cc1OCC | active: 11.7 µM | –
28 | CC(C)C(=O)NC(C)C(c1cccs1)N1CCN(c2ccccc2)CC1 (configuration not stated) | inconclusive [inhibitor, single point] | –
29 | Oc1ccc(/C=N/N(c2ccccc2)c2ccccc2)c(O)c1O | inconclusive [inhibitor, single point] | –
30 | COc1ccccc1-c1sc2ccccc2c1-c1ccc2c(c1)OCO2 | active: 4.65 µM | –
31 | CCC(C)(C)NC(=O)C(c1ccc(OC)cc1)N(C(=O)CCC(=O)Nc1cc(C)on1)c1cccc(OC)c1 (configuration not stated) | inconclusive [inhibitor, single point] | –
32 | COc1ccccc1-c1c(C)nn2c(-c3ccccc3)cc(C)nc12 | inconclusive [inhibitor, single point] | –
33 | CSc1ccccc1C(=O)C1CCCN(Cc2ccncc2)C1 (configuration not stated) | inconclusive [inhibitor, single point] | –
34 | O=C(Nc1ccccc1N1CCN(C(=O)c2ccccc2)CC1)c1ccc2c(c1)OCO2 | inconclusive [inhibitor, single point] | –
35 | O=C(NC(=S)Nc1cc(C(F)(F)F)ccc1N1CCOCC1)c1ccco1 | inconclusive [inhibitor, full curve] | –
36 | O=C(N/N=C\c1cc([N+](=O)[O-])ccc1N1CCOCC1)c1ccccn1 | – | inactive: 21.4%
37 | Cc1ccc2c(C)nc(Nc3nc(CSc4nnc(C)s4)cc(=O)[nH]3)nc2c1 | inconclusive [inhibitor, partial curve] | –
38 | COc1ccc(C(C[N+](=O)[O-])c2c(-c3ccccc3)cc3ccccn23)cc1OC (configuration not stated) | inconclusive [inhibitor, single point] | –
39 | O=C1c2cccc3c(N4CCCCC4)ccc(c23)C(=O)N1c1cccc(O)c1 | inconclusive [inhibitor, partial curve, poor fit] | –
40 | CCOC(=O)CSC1=C(C#N)C(c2ccco2)C(C(=O)Nc2cccc(C(F)(F)F)c2)=C(C)N1 (configuration not stated) | active: 10.4 µM | –
41 | COc1ccc(NC(=O)C2CCN(S(=O)(=O)c3cccc4nonc34)CC2)cc1 | – | inactive: -14.2%
42 | CCOC(=O)C1=C(C)NC(SCc2cc(=O)[nH][nH]2)=C(C#N)C1c1cccs1 (configuration not stated) | – | inactive: -3.42%

Row | Compound | Potency | activity change, negative = inhibition
43 | CCOc1ccc(N2C(=O)CC(NCc3ccc(S(N)(=O)=O)cc3)C2=O)cc1 (configuration not stated) | – | inactive: -2.74%
44 | Cc1cccc(NC(=O)COC(=O)c2cc(C)oc2C)c1 | – | inactive: 3.05%
45 | C=CCN=C1S/C(=C\c2ccc(Cl)cc2)C(=O)N1CC=C | inconclusive [inhibitor, single point] | –
46 | CN(CCOc1ccccc1)CC(=O)Nc1ccc(Cl)c(S(=O)(=O)N(C)C)c1 | – | inactive: -18.8%
47 | COCCNC(=O)c1c(N)n(-c2ccccc2)c2nc3ccccc3nc12 | inconclusive [inhibitor, single point] | –
48 | CCCCN(CC)S(=O)(=O)c1ccc2c(c1)CCCN2C(C)=O | inconclusive [inhibitor, partial curve, poor fit] | –
49 | O=[N+]([O-])c1cc(S(=O)(=O)N2CCCCC2)ccc1NCCN1CCOCC1 | inconclusive [inhibitor, partial curve, poor fit] | –
50 | CC(=O)N1c2ccc(S(=O)(=O)NCC3CCC(C(=O)N4CCCC(C)C4)CC3)cc2CC1C (configuration not stated) | inconclusive [inhibitor, partial curve, poor fit] | –
51 | CC(CCCC(C)(C)O)NC(=O)c1cc(COc2ccc3ncccc3c2)on1 (configuration not stated) | inconclusive [inhibitor, partial curve, poor fit] | –
52 | CC(C)(C)c1ccc(NC(=O)C(=O)C2C(=O)Nc3ccccc32)cc1 (configuration not stated) | – | inactive: -4.71%
53 | CN1CCC(=NNC(=O)c2ccc(N(Cc3ccc(Cl)cc3)S(C)(=O)=O)cc2)CC1 | inconclusive [inhibitor, partial curve] | –
54 | COc1ccc(N2CC(C(=O)N[C@@H](CC(C)C)C(=O)NC3CCCC3)CC2=O)cc1 (some centres not stated) | inconclusive [inhibitor, partial curve, poor fit] | –
55 | Cc1cccc(OC(C)C(=O)Nc2cc(Cl)ccc2-n2cncn2)c1 (configuration not stated) | active: 4.15 µM | –
56 | CCC(=O)Nc1cccc(C(=O)/C=C/c2ccc(F)cc2)c1 | inconclusive [inhibitor, single point] | –
57 | CCOC(=O)c1c(NC(=O)COC(=O)CCNS(=O)(=O)c2ccccc2)sc(C(=O)N(C)C)c1C | inconclusive [inhibitor, single point] | –
58 | COC(=O)C1CCN(c2ccc(Cl)nn2)CC1 | active: 1.47 µM | –
59 | Cc1ccc(OCC(=O)Nc2ccc(C)c(S(=O)(=O)N3CCCCCC3)c2)c([N+](=O)[O-])n1 | inconclusive [inhibitor, single point] | –
60 | CCCN(CCC)CCCNC(=S)Nc1ccc2nc(N3CCN(CC)CC3)cc(C)c2c1 | active: 4.15 µM | –
61 | COc1cccc(C(=O)Nc2ccc3c(c2)C(=O)N(CC2CCCO2)C3=O)c1 (configuration not stated) | inconclusive [inhibitor, single point] | –
62 | Brc1ccc2c(c1)CNc1c(ncnc1N1CCOCC1)O2 | inconclusive [inhibitor, partial curve, poor fit] | –
